Experimental data from the RNAGym collection of RNA variant scans (doi:10.1073/pnas.2313332121).
This sample is rich in variants without activity.

B1: TPR 5TU (parent)
chain: GGAUCUUCUCGAUCUAACAAAAAAGACAAAUCUGCCACAAAGCUUGAGAGCAUCUUCGGAUGCAGAGGCGGCAGCCUUCGGUGGCGCGAUAGCGCCAACGUUCUCAACUAUGACACGCAAAACGCGUGCUCCGUUGAAUGGAGUUUAUCAUG

Variants of: B1
Experiment: polymerase ribozyme fitness, log enrichment relative to wild type (log ratio); higher = more active; in vitro selection for triplet polymerase activity
Outline: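 Each subunit of a heterodimeric triplet polymerase ribozyme was mutagenized into a library by PCR, transcribed, and subjected to one round of in vitro selection, run in triplicate. Libraries were annealed with a biotinylated primer, the partner subunit and triplets, incubated frozen at −7 °C, and extended constructs were gel-excised, captured on streptavidin beads and recovered by RT-PCR. Input and output libraries were sequenced on Illumina, keeping genotypes with ≥10 input reads and ≥1 read per output. Fitness is log base 2 of genotype enrichment divided by wild-type enrichment, from inverse-variance-weighted replicate averages.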

Q: For A28U A39C G70A C96G C105U A120U C125A C129G, which “polymerase ribozyme fitness (log ratio)” value is on record?
A: ≤ -4.2

Q: For A28U A39C U90G C95U G100C G126U, which “polymerase ribozyme fitness (log ratio)” value is on record?
A: ≤ -4.2

Q: With A28U A39U C57A C87U C103U as the variant, how does the “polymerase ribozyme fitness (log ratio)” value read?
A: ≤ -4.2

Q: Which “polymerase ribozyme fitness (log ratio)” value does the source give for A28U A39U U55A C79U G84A A113G U139C G143A here?
A: ≤ -4.2

Q: With A28U A40U G50A G58A U101G U130A as the variant, how does the “polymerase ribozyme fitness (log ratio)” value read?
A: ≤ -4.2

Q: Which “polymerase ribozyme fitness (log ratio)” value does the source give for A28U A41C C57A here?
A: ≤ -4.2

Q: Which “polymerase ribozyme fitness (log ratio)” value does the source give for A28U A41C C96A G141C here?
A: -4.02

Q: For A28U A41C G42A C54U C57U C85G A106G A115U, which “polymerase ribozyme fitness (log ratio)” value is on record?
A: ≤ -4.2

Q: Which “polymerase ribozyme fitness (log ratio)” value does the source give for A28U A41C G67U U78A G88A C96G A107U G117C here?
A: ≤ -4.2

Q: For A28U A41C G86A C105U C114U U146G, which “polymerase ribozyme fitness (log ratio)” value is on record?
A: ≤ -4.2

Q: For A28U A41G G50U, which “polymerase ribozyme fitness (log ratio)” value is on record?
A: ≤ -4.2

Q: Which “polymerase ribozyme fitness (log ratio)” value does the source give for A28U A41U C57A G70C G88U A89U C95A here?
A: ≤ -4.2

Q: Which “polymerase ribozyme fitness (log ratio)” value does the source give for A28U A41U G50C G84A C99G U127C A150U here?
A: ≤ -4.2

Q: With A28U A47G G59A U77G A110U A137U U145A as the variant, how does the “polymerase ribozyme fitness (log ratio)” value read?
A: ≤ -4.2

Q: Which “polymerase ribozyme fitness (log ratio)” value does the source give for A28U A49C A66G C93U A98G here?
A: ≤ -4.2

Q: For A28U A49C C103G, which “polymerase ribozyme fitness (log ratio)” value is on record?
A: ≤ -4.2

Q: With A28U A49G C51U C87A C123A G124A A150C G152U as the variant, how does the “polymerase ribozyme fitness (log ratio)” value read?
A: ≤ -4.2

Q: Which “polymerase ribozyme fitness (log ratio)” value does the source give for A28U A49G C54A C93U U144C here?
A: ≤ -4.2

Q: Which “polymerase ribozyme fitness (log ratio)” value does the source give for A28U A52G A97U A113U U134C here?
A: ≤ -4.2

Q: With A28U A52U G140U A142U as the variant, how does the “polymerase ribozyme fitness (log ratio)” value read?
A: ≤ -4.2

Q: With A28U A52U U53G G88C C108G as the variant, how does the “polymerase ribozyme fitness (log ratio)” value read?
A: ≤ -4.2

Q: With A28U A66C U78G G84A C95G C105A C123A as the variant, how does the “polymerase ribozyme fitness (log ratio)” value read?
A: ≤ -4.2

Q: For A28U A121C, which “polymerase ribozyme fitness (log ratio)” value is on record?
A: ≤ -4.2

Q: For A28U C32A C85A G141A, which “polymerase ribozyme fitness (log ratio)” value is on record?
A: ≤ -4.2

Q: With A28U C32G A41C A49C C76U G86U U135A U139A U151G as the variant, how does the “polymerase ribozyme fitness (log ratio)” value read?
A: ≤ -4.2

Q: Which “polymerase ribozyme fitness (log ratio)” value does the source give for A28U C32U A37G G68U G86A here?
A: ≤ -4.2

Q: Which “polymerase ribozyme fitness (log ratio)” value does the source give for A28U C35U U44G G94A A120U C125U G141C here?
A: ≤ -4.2

Q: For A28U C36A A40U U82A G86A A113C, which “polymerase ribozyme fitness (log ratio)” value is on record?
A: ≤ -4.2

Q: For A28U C36G A49C G67A, which “polymerase ribozyme fitness (log ratio)” value is on record?
A: ≤ -4.2

Q: With A28U C38A A41C A91U C132U U135G as the variant, how does the “polymerase ribozyme fitness (log ratio)” value read?
A: ≤ -4.2

Q: Which “polymerase ribozyme fitness (log ratio)” value does the source give for A28U C43U G58C A66C G68C C85U C108A here?
A: ≤ -4.2

Q: For A28U C43U U77C G83U, which “polymerase ribozyme fitness (log ratio)” value is on record?
A: ≤ -4.2

Q: Which “polymerase ribozyme fitness (log ratio)” value does the source give for A28U C51A A52C C99U A106G A120U here?
A: ≤ -4.2

Q: With A28U C51U G68U G81U G92U C93A G126A U134G as the variant, how does the “polymerase ribozyme fitness (log ratio)” value read?
A: ≤ -4.2

Q: For A28U C54G C72U, which “polymerase ribozyme fitness (log ratio)” value is on record?
A: ≤ -4.2

Q: With A28U C54U U56A G94A C131G U151A as the variant, how does the “polymerase ribozyme fitness (log ratio)” value read?
A: ≤ -4.2

Q: Which “polymerase ribozyme fitness (log ratio)” value does the source give for A28U C57U G58U A60G C75A G124C C125U G136U U144C here?
A: ≤ -4.2

Q: With A28U C63A G84U C118U as the variant, how does the “polymerase ribozyme fitness (log ratio)” value read?
A: ≤ -4.2

Q: With A28U C72G A107C G126U U144C as the variant, how does the “polymerase ribozyme fitness (log ratio)” value read?
A: ≤ -4.2

Q: With A28U C75U as the variant, how does the “polymerase ribozyme fitness (log ratio)” value read?
A: ≤ -4.2

Q: For A28U C75U G84U G86A C93U A106G A113U, which “polymerase ribozyme fitness (log ratio)” value is on record?
A: ≤ -4.2

Q: With A28U C76G G92U as the variant, how does the “polymerase ribozyme fitness (log ratio)” value read?
A: ≤ -4.2

Q: For A28U C87A, which “polymerase ribozyme fitness (log ratio)” value is on record?
A: ≤ -4.2

Q: With A28U C87G C118G as the variant, how does the “polymerase ribozyme fitness (log ratio)” value read?
A: ≤ -4.2

Q: For A28U C87U A119C A138U G140C, which “polymerase ribozyme fitness (log ratio)” value is on record?
A: ≤ -4.2

Q: Which “polymerase ribozyme fitness (log ratio)” value does the source give for A28U C93U C118U A121G here?
A: ≤ -4.2

Q: For A28U G42A G74U, which “polymerase ribozyme fitness (log ratio)” value is on record?
A: ≤ -4.2

Q: For A28U G42A U53A G71A C93G, which “polymerase ribozyme fitness (log ratio)” value is on record?
A: ≤ -4.2

Q: For A28U G46C C51G U61G C87G U102A A119U G128U A138C, which “polymerase ribozyme fitness (log ratio)” value is on record?
A: ≤ -4.2

Q: With A28U G48U as the variant, how does the “polymerase ribozyme fitness (log ratio)” value read?
A: ≤ -4.2

Q: For A28U G50A, which “polymerase ribozyme fitness (log ratio)” value is on record?
A: ≤ -4.2

Q: Which “polymerase ribozyme fitness (log ratio)” value does the source give for A28U G50C C79G G81U C87A U102G C103G G124C A137G here?
A: ≤ -4.2

Q: With A28U G50U G71A G112A A150C as the variant, how does the “polymerase ribozyme fitness (log ratio)” value read?
A: ≤ -4.2

Q: With A28U G59U C93U C114G as the variant, how does the “polymerase ribozyme fitness (log ratio)” value read?
A: ≤ -4.2

Q: Which “polymerase ribozyme fitness (log ratio)” value does the source give for A28U G68U C99U A110G here?
A: ≤ -4.2

Q: For A28U G74A C85U A91U, which “polymerase ribozyme fitness (log ratio)” value is on record?
A: ≤ -4.2

Q: Which “polymerase ribozyme fitness (log ratio)” value does the source give for A28U G83A here?
A: ≤ -4.2

Q: With A28U G83C G92U C96U as the variant, how does the “polymerase ribozyme fitness (log ratio)” value read?
A: ≤ -4.2

Q: For A28U G83C U111A U145C, which “polymerase ribozyme fitness (log ratio)” value is on record?
A: ≤ -4.2

Q: Which “polymerase ribozyme fitness (log ratio)” value does the source give for A28U U44A C76U C125G here?
A: ≤ -4.2

Q: Which “polymerase ribozyme fitness (log ratio)” value does the source give for A28U U44A C93A here?
A: ≤ -4.2

Q: Which “polymerase ribozyme fitness (log ratio)” value does the source give for A28U U56A C79U C93U C125U here?
A: ≤ -4.2

Q: Which “polymerase ribozyme fitness (log ratio)” value does the source give for A28U U77A G83U U134A here?
A: ≤ -4.2

Q: For A28U U77C, which “polymerase ribozyme fitness (log ratio)” value is on record?
A: ≤ -4.2

Q: For A29C A30U C85G U146C U151A, which “polymerase ribozyme fitness (log ratio)” value is on record?
A: ≤ -4.2

Q: For A29C A37U U45G G83A A113G A147U, which “polymerase ribozyme fitness (log ratio)” value is on record?
A: ≤ -4.2

Q: Which “polymerase ribozyme fitness (log ratio)” value does the source give for A29C A39U C96A here?
A: ≤ -4.2

Q: With A29C A40C A52C C87U A97G C99G A115U as the variant, how does the “polymerase ribozyme fitness (log ratio)” value read?
A: ≤ -4.2

Q: With A29C A40G C123A U127A as the variant, how does the “polymerase ribozyme fitness (log ratio)” value read?
A: ≤ -4.2

Q: For A29C A41C G62A G84A U90A C118G, which “polymerase ribozyme fitness (log ratio)” value is on record?
A: ≤ -4.2

Q: With A29C A41U U56G C57A A73G U102C A142C as the variant, how does the “polymerase ribozyme fitness (log ratio)” value read?
A: ≤ -4.2

Q: Which “polymerase ribozyme fitness (log ratio)” value does the source give for A29C A47C A64C C99A A115U G141C U146A here?
A: ≤ -4.2

Q: Which “polymerase ribozyme fitness (log ratio)” value does the source give for A29C A47U A91U C93A A110C U111G U135A here?
A: ≤ -4.2

Q: For A29C A49G C54U C105U, which “polymerase ribozyme fitness (log ratio)” value is on record?
A: ≤ -4.2

Q: With A29C A49U A52U G83C C99A U144C U145A as the variant, how does the “polymerase ribozyme fitness (log ratio)” value read?
A: ≤ -4.2

Q: For A29C A52C U53A C54U C75G C129A, which “polymerase ribozyme fitness (log ratio)” value is on record?
A: ≤ -4.2

Q: For A29C A52G G83C A106C, which “polymerase ribozyme fitness (log ratio)” value is on record?
A: ≤ -4.2

Q: With A29C C35G G48U G81C A121G as the variant, how does the “polymerase ribozyme fitness (log ratio)” value read?
A: ≤ -4.2

Q: Which “polymerase ribozyme fitness (log ratio)” value does the source give for A29C C36A G117U G140A here?
A: ≤ -4.2

Q: Which “polymerase ribozyme fitness (log ratio)” value does the source give for A29C C36U G50C A64G U78G U82C G84A U90C G94U here?
A: ≤ -4.2

Q: Which “polymerase ribozyme fitness (log ratio)” value does the source give for A29C C38U A39C C96A C103U U111G A138G here?
A: ≤ -4.2

Q: For A29C C38U C54A U55A C75G C132G U134C, which “polymerase ribozyme fitness (log ratio)” value is on record?
A: ≤ -4.2

Q: Which “polymerase ribozyme fitness (log ratio)” value does the source give for A29C C43U G48C U61G C96U here?
A: ≤ -4.2
